Laboratory results taken from the supplement of paper PMC12217912.
The other results are listed elsewhere or left out. Sequences were assembled here from the parent chain. Values near 0.05 are background.

B1: TEV protease; numbered along this chain (parent)
chain: MGESLFKGPRDYNPISSSICHLTNESDGHTTSLYGIGFGPFIITNKHLFRRNNGTLVVQSLHGVFKVKDTTTLQQHLVDGRDMIIIRMPKDFPPFPQKLKFREPQREERICLVTTNFQTKSMSSMVSDTSCTFPSGDGIFWKHWIQTKDGQCGSPLVSTRDGFIVGIHSASNFTNTNNYFTSVPKNFMELLTNQEAQQWVSGWRLNADSVLWGGHKVFMVKPEEPFQPVKEATQL

Variants of: B1
Assay: raw area under fraction-flipped curve 0-4 h after induction (AUC4h, not background-subtracted), DNA-recorder readout of cleavage of the substrate (dimensionless); higher = more cleavage of the substrate by the protease variant
Conditions: temperature: 34 °C; time window: 0-4 h after rhamnose induction
Method: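 In vivo DNA recorder in E. coli TOP10(DE3) ΔrhaA at 34 °C. Each TEVp single-site mutant (parent TEVp 0) is paired with a single-site variant of the 7-mer TEVs (canonical ENLYFQ|S). The substrate sits between flexible linkers in a Bxb1-sfGFP-TEVs-SsrA fusion, so cleavage stabilises Bxb1 and speeds flipping of a recombination array, read by NGS. The value is the raw area under the fraction-flipped curve over 0-4 h after rhamnose induction (AUC4h), with ≥20 reads per time point. It is not background-subtracted; inactive controls average about 0.047.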
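Also: Bxb1 expression induced with 0.2% (w/v) L-rhamnose at OD600 near 0.5, cultures sampled hourly, flipped fraction per protease–substrate barcode pair counted by paired-end Illumina sequencing.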

Variant | area with substrate ENLYFQA | area with substrate ENLYFQC | area with substrate ENLYFQD | area with substrate ENLYFQE | area with substrate ENLYFQI | area with substrate ENLYFQK | area with substrate ENLYFQL | area with substrate ENLYFQM | area with substrate ENLYFQN | area with substrate ENLYFQR | area with substrate ENLYFQS | area with substrate ENLYFQW | area with substrate ENLYFQY | area with substrate ENLYFQF | area with substrate ENLYFQG | area with substrate ENLYFQT | area with substrate ENLYFQV | area with substrate ENLYFQH | area with substrate ENLYFQP | area with substrate ENLYFQQ
V183Y | 0.0767 | 0.0852 | 0.0667 | 0.0716 | 0.0401 | 0.0581 | 0.0543 | 0.0691 | 0.0598 | 0.0516 | 0.0782 | 0.057 | 0.0559 | – | – | – | – | – | – | –
Q105A | 0.0993 | 0.134 | – | 0.0731 | 0.0538 | 0.0613 | 0.0596 | 0.0834 | 0.0751 | 0.0639 | 0.102 | 0.0789 | 0.0799 | 0.0735 | 0.0918 | 0.0653 | 0.0656 | – | – | –
H215E | 0.0608 | 0.072 | 0.0716 | 0.0669 | 0.061 | 0.05 | 0.0577 | 0.0586 | – | 0.0559 | 0.0674 | 0.0385 | – | – | 0.0631 | 0.0497 | – | 0.0672 | 0.0582 | –
D69C | 0.0829 | 0.0977 | 0.0608 | 0.0727 | – | – | 0.0622 | 0.0719 | 0.0787 | 0.0382 | 0.0907 | 0.0218 | 0.0678 | 0.0578 | – | – | 0.0563 | 0.0705 | 0.0593 | –
D69R | 0.0867 | 0.108 | – | 0.0658 | – | – | 0.0662 | 0.0559 | 0.0738 | 0.0559 | 0.0837 | 0.0747 | – | – | 0.0754 | 0.0546 | – | – | 0.0483 | –
R81E | 0.0752 | 0.0579 | 0.0683 | – | – | 0.0643 | 0.0495 | 0.0625 | – | 0.0553 | 0.0669 | 0.0599 | – | – | – | 0.058 | – | 0.0694 | 0.0573 | 0.0512
S127H | 0.0823 | 0.12 | – | – | 0.0595 | 0.0656 | 0.0627 | 0.102 | – | 0.0373 | 0.104 | 0.104 | – | – | – | 0.0634 | – | – | 0.0518 | 0.0789
I36L | 0.0785 | – | – | – | 0.0757 | 0.0746 | 0.0713 | 0.0946 | 0.125 | 0.0642 | 0.109 | 0.0298 | – | 0.0819 | – | 0.0642 | 0.066 | 0.0837 | 0.0228 | –
W212D | 0.0587 | 0.075 | – | – | – | 0.063 | 0.0586 | – | – | 0.0586 | 0.0663 | 0.0608 | – | – | – | 0.0687 | – | – | – | –
L211C | 0.0904 | 0.0985 | 0.059 | 0.0759 | – | 0.0634 | 0.0824 | 0.102 | – | – | 0.109 | 0.0611 | 0.0877 | – | 0.0951 | 0.0602 | – | 0.112 | – | –
S130Q | 0.0968 | – | 0.0844 | 0.05 | – | – | – | 0.0829 | – | – | 0.107 | – | 0.0853 | – | 0.103 | 0.0735 | – | 0.0758 | – | –
K230L | 0.0967 | – | – | – | 0.0536 | – | 0.0449 | – | 0.068 | – | 0.0941 | 0.0645 | 0.0784 | – | 0.0914 | 0.0307 | – | 0.0805 | – | –
K230W | 0.0778 | 0.114 | 0.0618 | – | – | – | 0.0589 | 0.103 | 0.0831 | 0.0591 | 0.0989 | 0.0616 | 0.0619 | – | 0.0885 | 0.0663 | – | 0.0579 | 0.0405 | 0.0857
C20T | 0.0939 | 0.096 | – | 0.0616 | 0.0554 | 0.0682 | 0.0555 | 0.0798 | 0.0753 | 0.0609 | 0.0928 | 0.059 | 0.102 | 0.0806 | 0.0853 | 0.0799 | – | 0.048 | – | 0.0631
I164Y | 0.0667 | – | 0.0474 | – | 0.0536 | 0.0662 | 0.0514 | 0.0532 | 0.0514 | 0.0474 | 0.0529 | 0.0499 | 0.0508 | – | 0.0449 | – | 0.0503 | – | – | –
I164P | 0.0356 | 0.0459 | 0.0376 | – | 0.0524 | – | 0.067 | 0.047 | 0.0585 | 0.0491 | 0.053 | 0.0623 | 0.0598 | 0.0528 | 0.0449 | 0.0608 | – | 0.0426 | – | –
L61D | 0.0887 | 0.0945 | 0.0622 | – | 0.0622 | – | 0.0578 | – | 0.0682 | 0.0622 | 0.102 | 0.0654 | 0.0777 | – | – | 0.0692 | 0.0803 | 0.08 | – | 0.0761
E107S | 0.0911 | 0.122 | – | – | 0.0598 | 0.064 | 0.0746 | 0.0844 | 0.0797 | 0.0622 | 0.101 | 0.0545 | 0.0771 | – | 0.078 | 0.0584 | 0.0833 | 0.0876 | – | –
Y34F | 0.0597 | – | 0.0555 | – | 0.0557 | 0.0637 | – | 0.0586 | 0.0391 | 0.0568 | 0.0974 | 0.0525 | 0.0929 | – | 0.105 | 0.0619 | 0.0611 | 0.0594 | – | –
F41V | 0.103 | 0.11 | – | – | 0.0763 | 0.0628 | 0.0664 | 0.0588 | – | 0.0612 | 0.0957 | 0.0596 | 0.0579 | – | 0.0998 | 0.0566 | 0.0549 | 0.0812 | 0.0665 | 0.0674
W141Q | 0.0699 | 0.0719 | – | – | 0.0549 | 0.0494 | 0.0509 | 0.0453 | 0.0359 | 0.0586 | 0.0635 | – | 0.0521 | 0.0572 | 0.0445 | 0.0526 | – | 0.0514 | 0.0614 | –
S60E | 0.0444 | 0.0642 | 0.0468 | – | 0.0643 | 0.0423 | 0.0517 | 0.0583 | 0.0553 | 0.0514 | 0.0619 | 0.0498 | – | 0.0489 | 0.059 | 0.0499 | 0.0529 | 0.0602 | 0.0445 | 0.0519
G28N | 0.113 | 0.107 | 0.073 | – | – | 0.057 | 0.072 | – | 0.0729 | – | 0.0974 | – | 0.0906 | – | 0.0836 | 0.0834 | – | 0.0719 | – | 0.0736
N116E | 0.0875 | 0.105 | – | 0.0773 | 0.0584 | 0.0644 | – | 0.0939 | 0.0702 | 0.0588 | 0.0982 | 0.0613 | 0.0709 | – | – | 0.0897 | 0.0588 | 0.0526 | 0.059 | –
N116K | 0.0688 | – | – | – | – | – | – | – | – | 0.0557 | 0.106 | – | 0.11 | – | 0.0971 | 0.0891 | – | – | – | –
E103W | 0.0844 | 0.0837 | 0.0585 | – | 0.0503 | 0.0624 | 0.06 | 0.0732 | 0.0621 | 0.0617 | 0.0785 | 0.0612 | 0.0592 | – | 0.0812 | 0.0429 | 0.0577 | 0.0751 | 0.0572 | 0.024
